Data as given in PubChem BioAssay AID1466 (National Center for Advancing Translational Sciences (NCATS), 2008).
The campaign covered roughly 200,000 compounds. About 10 (0.005%) were called active. The shares of active, inactive and inconclusive entries below differ from those in the screen. Calls follow the shape of the dose curve; as a rule, active = well fitted inhibition curve with a large enough effect; inconclusive = small, poorly fitted or top-dose-only effect, or effect the other way, or another doubt; inactive = no such curve, though single readings can be large or run the other way. No potency is given beside an inconclusive call; the fits are too rough.

Biological target: Lysosomal alpha-glucosidase (Homo sapiens) (UniProt P10253)
Experiment: qHTS Assay for Inhibitors of Human alpha-Glucosidase as a Potential Chaperone Treatment of Pompe Disease;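 as to activity change, negative = inhibition: plate controls were uninhibited enzyme wells for no effect and no-enzyme background for full effect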
Details: purified human GAA, 4-MU-alpha-glucoside fluorescence; activity change, negative = inhibition: at 76.9 µM (top of the series) unless noted
Outline: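 Compounds are titrated up to 77 uM against 4 nM human enzyme. Substrate 4-methylumbelliferyl-alpha-D-pyranoside (400 uM) reacts 20 min at room temperature in pH 5.0 buffer; liberated 4-methylumbelliferone is read at 440 nm.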
Potency is read from the fitted curve at half-maximal effect; tags tell the direction and shape of the fitted curve.

Compound	activity change, negative = inhibition	Potency
CC(C)(C)NS(=O)(=O)c1ccc(CCC(=O)Nc2cc(Cl)ccc2Oc2ccccc2)cc1	inconclusive: -21.4% [inhibitor]	–
Cc1c(C)c2cc(Cl)c(O)c(CN3CCCCC3)c2oc1=O	–	inconclusive [activator, partial curve]
CC(C)(C)C(=O)Nc1ccc(N=Nc2ccccc2)cc1	inconclusive: 16.1% [activator]	–
CCCCc1ccc(NC(=O)c2c(C)noc2C)cc1	–	inconclusive [inhibitor, partial curve]
COc1ccccc1/C=C/C=N/NC(=O)CN1CCN(Cc2ccccc2)CC1	inactive: -13.8%	–
COc1cccc2sc(N(CCCN(C)C)C(=O)c3sc4ccccc4c3Cl)nc12	inconclusive: -17% [inhibitor]	–
Cc1nc(C)c(CCNC(=O)c2ccccc2Br)s1	–	inconclusive [inhibitor, single point]
Cc1ccc(C(C[N+](=O)[O-])c2c(C)cc3ccccn23)cc1 (centres undefined)	–	inconclusive [inhibitor, single point]
CCOCCCNC(=O)c1cc2c(=O)n3cccc(C)c3nc2n1C	–	inconclusive [activator, full curve, poor fit]
CCOC(=O)c1sc(C)c(C(=O)NCCCN2CCOCC2)c1N	–	inconclusive [inhibitor, single point]
Cc1ccccc1-c1noc(-c2ccccc2C(=O)NCc2ccco2)n1	–	inconclusive [inhibitor, partial curve]
CCCCCCOC(=O)c1ccc(NC(=O)c2cc(OC)c(OC)c(OC)c2Br)cc1	–	inconclusive [inhibitor, partial curve, poor fit]
CCOC(=O)C1CCCN(S(=O)(=O)c2ccc(Br)s2)C1 (centres undefined)	–	inconclusive [inhibitor, partial curve]
CO/N=C(/CS(=O)(=O)c1ccc(C)cc1)c1ccc(OC)cc1	–	inconclusive [inhibitor, partial curve, poor fit]
COc1ccc2c(c1)C(C)=CC(C)(C)N2C(=O)Nc1ccccc1	–	inconclusive [activator, single point]
CCOc1c(O)ccc(/C=C2\SC(=S)NC2=O)c1[N+](=O)[O-]	–	inconclusive [inhibitor, full curve]
O=C(NP(=O)(N1CCOCC1)N1CCOCC1)C1=C(N2CCOCC2)/C(=C\c2ccccc2)CC1	inconclusive: 20.2% [activator]	–
COc1ccccc1CNC(=O)CSc1ccccc1	inactive: 6.13%	–
CC1=CC(=C2N=C(c3ccccc3)OC2=O)C=C(C)O1	–	inconclusive [inhibitor, single point]
